Hit rate of the full screen: of about 310,000 compounds, about 2,200 (0.71%) showed an effect of 50% or more. The effect is printed as a negative number. This is one part of the list.
The molecules below were run against human ether-à-go-go-related gene (hERG) potassium channel (human, UniProt Q12809) (assay: primary screen, population patch clamp on CHO cells stably expressing hERG).
Sequence of human ether-à-go-go-related gene (hERG) potassium channel (Q12809 whole entry, looked up): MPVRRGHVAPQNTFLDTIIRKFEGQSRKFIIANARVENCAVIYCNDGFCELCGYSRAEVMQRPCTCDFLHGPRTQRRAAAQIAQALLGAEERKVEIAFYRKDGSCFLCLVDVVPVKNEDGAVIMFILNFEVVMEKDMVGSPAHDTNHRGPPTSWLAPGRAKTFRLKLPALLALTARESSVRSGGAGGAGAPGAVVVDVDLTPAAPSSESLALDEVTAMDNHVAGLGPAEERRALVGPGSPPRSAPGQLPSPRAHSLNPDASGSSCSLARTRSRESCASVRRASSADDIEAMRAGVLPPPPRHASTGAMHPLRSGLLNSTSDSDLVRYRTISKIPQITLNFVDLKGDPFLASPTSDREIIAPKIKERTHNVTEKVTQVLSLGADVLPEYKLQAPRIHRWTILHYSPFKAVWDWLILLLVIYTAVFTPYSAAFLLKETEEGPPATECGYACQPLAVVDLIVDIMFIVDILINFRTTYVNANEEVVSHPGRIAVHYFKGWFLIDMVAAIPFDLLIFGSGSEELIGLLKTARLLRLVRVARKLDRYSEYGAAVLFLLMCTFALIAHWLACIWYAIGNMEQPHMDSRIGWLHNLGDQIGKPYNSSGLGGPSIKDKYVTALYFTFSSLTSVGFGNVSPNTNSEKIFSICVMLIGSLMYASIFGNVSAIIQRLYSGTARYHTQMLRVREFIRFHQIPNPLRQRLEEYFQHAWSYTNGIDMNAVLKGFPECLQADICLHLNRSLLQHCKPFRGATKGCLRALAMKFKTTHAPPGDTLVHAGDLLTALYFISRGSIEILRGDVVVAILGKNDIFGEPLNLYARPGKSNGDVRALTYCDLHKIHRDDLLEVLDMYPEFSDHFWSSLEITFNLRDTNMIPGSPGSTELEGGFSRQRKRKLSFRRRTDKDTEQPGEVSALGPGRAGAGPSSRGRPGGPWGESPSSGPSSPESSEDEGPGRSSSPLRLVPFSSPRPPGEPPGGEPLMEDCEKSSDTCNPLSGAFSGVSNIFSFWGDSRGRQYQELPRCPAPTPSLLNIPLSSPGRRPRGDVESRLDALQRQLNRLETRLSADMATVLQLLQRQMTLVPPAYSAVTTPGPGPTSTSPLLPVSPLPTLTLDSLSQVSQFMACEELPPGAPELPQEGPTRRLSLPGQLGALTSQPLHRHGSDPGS

Row | SMILES | hERG current change (%, negative = inhibition) at 1uM [%]
1 | COc1cc(CN(C)CC2CCCN(CCc3ccccc3F)C2)cc(Cl)c1OC (centres unmarked) | -17.2
2 | O=S(=O)(NCC1COc2ccccc2O1)c1ccc2ccccc2c1 (centres unmarked) | 12.9
3 | Cc1ccccc1NC(=O)CNc1ccc(Cl)c(C(F)(F)F)c1 | 16.5
4 | Cc1cc(C)c2c(C)c(C(=O)NCc3ccc(S(N)(=O)=O)cc3)oc2c1 | 14.2
5 | O=C(NCCCN1CCOCC1)C(=O)NCc1ccc(Cl)cc1 | 9.27
6 | Cc1cccc(NC(=S)N2CCC(C(N)=O)(N3CCCCC3)CC2)c1C | 18.7
7 | Cc1ccccc1CSc1nnc(-c2ccncc2)n1C | -1.35
8 | CCCc1cc(=O)[nH]c(SCC(=O)C(C)(C)C)n1 | 10.1
9 | CN1C(=O)c2cccc(NCCCCCCN3C(=O)c4ccccc4C3=O)c2C1=O | 12.6
10 | CCNC(=O)NC(=O)C(C)Sc1nc2cc(C(=O)OC)ccc2c(=O)n1-c1ccccc1 (centres unmarked) | 7.8
11 | C(=N\NCc1ccccc1)/c1ccc2nccnc2c1 | 7.94
12 | CC(=O)Oc1ccc(C(=O)[C@H]2[C@H]3C(=O)N(c4ccc(C)cc4C)C(=O)[C@H]3[C@@H]3C=CC=NN32)cc1 | 9.02
13 | O=C1OCC(Cn2c3ccccc3c3ccccc32)O1 (centres unmarked) | -2.67
14 | CCOC(=O)N1CCN(C(=O)c2ccc(CS(=O)(=O)c3ccccc3OC)o2)CC1 | 3.47
15 | CCOc1cc(CNCc2ccccn2)cc(Cl)c1OC.Cl | 13.7
16 | CC1S/C(=N/N=C/c2ccco2)NC1=O (centres unmarked) | 7.15
17 | CCOC(=O)C1CCN(CC(O)COC(CC)c2ccccc2)CC1.Cl (centres unmarked) | -17.7
18 | CCOC(=O)Cc1csc(NC(=O)CSc2nnc(-c3ccncc3)n2Cc2ccco2)n1 | 7.77
19 | COc1ccccc1NC(=O)C/C(C)=N/NC(=O)c1ccccn1 | 15.5

Row | SMILES | hERG current change (%, negative = inhibition) at 1uM [%]
20 | Cn1c(N)c(C(=O)COC(=O)C2=NNC(=O)CC2)c(=O)n(C)c1=O | 18.1
21 | Cc1ccccc1C(=O)N1CCN(C(c2ccccc2)c2ccccc2)CC1.Cl | 12
22 | COc1ccc(-c2c(-c3ccccc3OC)sc3ccccc23)cc1OC | 8.83
23 | Cc1ccccc1OCC(=O)NNC(=O)C1CCN(c2ncnc3sc(C)c(C)c23)CC1 | -1.23
24 | O=C(O)CCc1nn2c3ccccc3nc2n(-c2ccccc2)c1=O | -0.587
25 | Cn1c(=O)[nH]c(=O)c2c1nc(Br)n2C/C=N/NC(=O)c1ccccc1 | 17.2
26 | Cc1cc(=O)oc2c(C)c(OC(C)C(=O)NCCCN3CCOCC3)ccc12 (centres unmarked) | 7.1
27 | Cc1ccc(C)c(OCc2nc3ccc(S(=O)(=O)Nc4c(C)n(C)n(-c5ccccc5)c4=O)cc3[nH]2)c1 | 12.5
28 | COc1cc(OC)cc(-c2c(-c3cccs3)c3cc(-c4ccc(OC)cc4F)ccc3n2C)c1 | 17
29 | [Na+].[S-]c1nnc(-c2ccc(Cl)cc2)n1Cc1ccccc1 | 21.6
30 | CN(C)CCCNCCCNC(=O)/C(=N\O)c1ccccn1 | 1.79
31 | CC(C)(C)c1ccc(OCC(=O)NNC(=S)NC(=O)c2ccco2)c(Br)c1 | 8.3
32 | ClC1(CNc2ccccc2)CCN(Cc2ccccc2)CC1.O=C(O)/C=C\C(=O)O | 5.82
33 | O=C(C1CC(=O)N(c2ccc(Cl)cc2)C1)N1CCCCCC1 (centres unmarked) | 9.09
34 | CC(C)NC(=O)CN(C)S(=O)(=O)c1ccc(F)cc1 | 3.03
35 | O=C(Nc1cc(N2CCCCC2)ncn1)c1ccccc1 | 6.61
36 | CCN1CCN(c2cc(C)c3cc(NC(=O)c4ccc5c(c4)OCO5)ccc3n2)CC1 | -19.4
37 | CCS(=O)(=O)N1CCc2cc(OC)c(OC)cc2C1 | 4.95
38 | Cc1ccc2[nH]c(=O)c(C(c3nnnn3Cc3ccccc3)N3CCc4ccccc43)cc2c1 (centres unmarked) | -2.88

Row | SMILES | hERG current change (%, negative = inhibition) at 1uM [%]
39 | O=C(CCCOc1ccc(Cl)cc1Cl)NN1CCOCC1 | 11.8
40 | CSc1nnc(NC(=O)c2ccc(S(=O)(=O)N3CCOCC3)cc2)s1 | 13.2
41 | COC(=O)CN1C(=O)NC2(CCCc3ccccc32)C1=O (centres unmarked) | 14.6
42 | CN(C)S(=O)(=O)c1ccc(C(=O)Nc2ccccc2C(=O)NCCCN2CCOCC2)cc1 | 6.77
43 | Cc1ccc(C(C)C)c(OCC(=O)N2CCN(CC(=O)N3CCOCC3)CC2)c1 | 9.03
44 | Cn1c(=O)c2c(SCC(=O)N3CCCC3)nc(CC(C)(C)C)nc2n(C)c1=O | 8.11
45 | O=C(CCNc1cccc(Cl)c1)c1ccco1 | -6.42
46 | CC(=O)c1sc(-c2cccc(Cl)c2)nc1C | 17.8
47 | COC(=O)C1CCCN1S(=O)(=O)c1ccccc1NC(=O)c1cc(OC)c(OC)c(OC)c1 (centres unmarked) | 15.2
48 | O=S(=O)(NCc1ccc(Cl)cc1)NCc1ccc(Cl)cc1 | 13.7
49 | COc1ccc2c(=O)c(C(=O)NCCc3ccccc3)c[nH]c2c1 | 5.12
50 | C[N+]1(C2CCC3CCCC2C3O)CCCC1.[I-] (centres unmarked) | 9.89
51 | CNc1nc(OCC(F)(F)F)nc(OCC(F)(F)F)n1 | 8.34
52 | COc1ccc(S(=O)(=O)N2CCCCCC2)cc1C(=O)N(C)CC(=O)Nc1ccc(Cl)c(Cl)c1 | -4.06
53 | O=C(CSc1nc2ccncc2[nH]1)Nc1ccccc1C(F)(F)F | 1.17
54 | CN(C)S(=O)(=O)c1cccc(COC(=O)CN2C(=O)NC3(CCCC3)C2=O)c1 | 7.72
55 | COc1ccc(Cl)cc1NC(=O)CN(C)Cc1cccs1 | 13.5
56 | COc1ccc(-c2nnc3ccc(SCC(=O)Nc4nc5ccccc5s4)nn23)cc1OC | 0.219

From article PMC4336329 (PLoS ONE, 2015)
